Experimental data from patent US20240229098A1, “BIOLUMINOGENIC ASSAY FOR DRUG-RESISTANCE BACTERIA DETECTION” (priority 2021, published 2024).

Key:
[1] = tested on: clinically isolated E. coli strain producing TEM-type β-lactamase (E. coli/TEM); assay: Bioluminescent detection of intact clinical isolate E. coli/TEM; settings: intact bacteria
[2] = tested on: E. coli expressing TEM-1 (E. coli/TEM-1); settings: for lowest number of E. coli/TEM-1 detected: 10 μM probe, 60 min, PBS pH 7.4
[3] = tested on: E. coli expressing IMP-1; settings: 10 μM probe, 60 min, PBS pH 7.4
[4] = tested on: E. coli/TEM; assay: Inhibitor test with E. coli/TEM and D-Bluco; settings: inhibitor 2 mg/mL, 37° C. 1 h pretreatment, D-Bluco 10 μM

SMILES	lowest number of E. coli/TEM-1 detected [2]	bioluminescence signal of D-Bluco with E. coli/TEM-1 in the presence of inhibitor [4]	other results
CN(C)c1ccc(/N=N/c2ccc(C(=O)NCCCCCC(=O)NC3C(=O)N4C(C(=O)O)=C(COc5ccc6nc(C7=N[C@@H](C(=O)O)CS7)sc6c5)C[S+]([O-])C34)cc2)cc1 (stereo partly drawn) [D-Bluco, 3-(((2-((S)-4-carboxy-4,5-dihydrothiazol-2-yl)benzo[d]thiazol-6-yl)oxy)methyl)-7-(6-(4-((E)-(4-(dimethylamino)phenyl)diazenyl)benzamido)hexanamido)-8-oxo-5-thia-1-azabicyclo[4.2.0]oct-2-ene-2-carboxylic acid 5-oxide]	10^2 c.f.u/mL	–	concentration of clinically isolated E. coli/TEM detected ([1]; after an hour incubation): 10^6 cfu/mL; concentration of clinically isolated E. coli/TEM detected ([1]; within 4 hours incubation): 10^5 cfu/mL; lowest number of E. coli/TEM-1 detected per assay volume ([2]; in a 100 μL volume, within an hour): 10 cfu; lowest concentration of IMP-1 expressing bacteria detected [3]: 10^4 c.f.u/mL
O=C(Cc1ccccc1)NC1C(=O)N2C(C(=O)O)=C(COc3ccc(COc4ccc5nc(C6=N[C@@H](C(=O)O)CS6)sc5c4)cc3)C3(CC3)SC12 (stereo partly drawn) [O-Bluco, 4-((4-(((2-((S)-4-carboxy-4,5-dihydrothiazol-2-yl)benzo[d]thiazol-6-yl)oxy)methyl)phenoxy)methyl)-7-oxo-8-(2-phenylacetamido)-2-thia-6-azaspiro[bicyclo[4.2.0]octane-3,1′-cyclopropan]-4-ene-5-carboxylic acid]	10^5 c.f.u/mL	–	–
NC(=O)[C@@H]1CC[C@@H]2CN1C(=O)N2OS(=O)(=O)O [avibactam]	–	abolished	–
O=C(O)[C@H]1/C(=C/CO)O[C@@H]2CC(=O)N21 [clavulanate]	–	abolished	–
